30 variants from the supplement of paper PMC7125110 can be followed below.

± gives the standard error. Variants at the floor of the assay are shown more often than the library holds them.

Sequences and labels used below:
B1: glmS ribozyme (parent)
chain: AUAAAAGCGCCAGAACUACAGAAAUGUAGUUGACGAGGAGGAGGUUUAUCGAAUUUUCGGCGGAUGCCUCCAAA

Holding throughout (settings): with glucosamine-6-phosphate
The variants in data set [1] derive from B1. The data set can be described thus: self-cleavage kobs at 640 uM GlcN6P; higher = faster cleavage; RNA array. In a few lines: (§1)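 Barcoded ribozyme variants, transcribed in situ by E. coli RNA polymerase on sequenced MiSeq chips, were followed via a hybridised Cy3 probe at 37 °C. Glucosamine-6-phosphate ranged from 40 μM to 10 mM in HEPES/KCl/Mg(OAc)2 buffer. kobs came from decay fits to per-tile medians, and kcat and KM from weighted Michaelis–Menten fits.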

Data set [2] covers variants of B1. The data set can be described thus: self-cleavage kobs at 2500 uM GlcN6P; higher = faster cleavage; RNA array. Put shortly: as §1
In data set [3] the parent is B1. Kind of data set: self-cleavage kobs at 160 uM GlcN6P; higher = faster cleavage; RNA array. Put shortly: as §1
In data set [4] the parent is B1. Kind of data set: self-cleavage kobs at 10000 uM GlcN6P; higher = faster cleavage; RNA array. Put shortly: as §1

Turning to A12G U31C G37C, in the data set with glucosamine-6-phosphate [1], the “self-cleavage kobs at 640 uM GlcN6P” value was less than 1e-05 s⁻¹. Also, the “self-cleavage kobs at 2500 uM GlcN6P” value with glucosamine-6-phosphate [2] was less than 1e-05 s⁻¹. For C11U A12U U30C U57C G63A, in the data set with glucosamine-6-phosphate [1], the “self-cleavage kobs at 640 uM GlcN6P” value was less than 1e-05 s⁻¹. In the data set with glucosamine-6-phosphate [2], the “self-cleavage kobs at 2500 uM GlcN6P” value was less than 1e-05 s⁻¹. As to G13A G29C G66U, the “self-cleavage kobs at 640 uM GlcN6P” value with glucosamine-6-phosphate [1] was less than 1e-05 s⁻¹. Consider C11A G63A, for which the “self-cleavage kobs at 640 uM GlcN6P” value with glucosamine-6-phosphate [1] is less than 1e-05 s⁻¹. Consider C10U G38U G59U, for which, in the data set with glucosamine-6-phosphate [1], the “self-cleavage kobs at 640 uM GlcN6P” value is less than 1e-05 s⁻¹. As to A12U A52U, the “self-cleavage kobs at 640 uM GlcN6P” value with glucosamine-6-phosphate [1] was found to be 0.000233 ± 3.8e-05 s⁻¹. Further, the “self-cleavage kobs at 160 uM GlcN6P” value with glucosamine-6-phosphate [3] was found to be 7.11e-05 ± 2e-05 s⁻¹.

With A12G G13C G51A U69C, the “self-cleavage kobs at 640 uM GlcN6P” value with glucosamine-6-phosphate [1] was less than 1e-05 s⁻¹. Besides, in the data set with glucosamine-6-phosphate [2], the “self-cleavage kobs at 2500 uM GlcN6P” value was less than 1e-05 s⁻¹. With C11U A33U C34G, the “self-cleavage kobs at 640 uM GlcN6P” value with glucosamine-6-phosphate [1] was less than 1e-05 s⁻¹. The “self-cleavage kobs at 2500 uM GlcN6P” value with glucosamine-6-phosphate [2] was less than 1e-05 s⁻¹. The “self-cleavage kobs at 10000 uM GlcN6P” value in the data set with glucosamine-6-phosphate [4] is less than 1e-05 s⁻¹. As to A12C G41A A42U G51C C68G C70U, the “self-cleavage kobs at 640 uM GlcN6P” value with glucosamine-6-phosphate [1] was less than 1e-05 s⁻¹. On to C10U A12C G60U, for which the “self-cleavage kobs at 640 uM GlcN6P” value in the data set with glucosamine-6-phosphate [1] was less than 1e-05 s⁻¹. Regarding G13A C67A, the “self-cleavage kobs at 640 uM GlcN6P” value in the data set with glucosamine-6-phosphate [1] amounted to 2.62e-05 ± 8.7e-06 s⁻¹. Besides, the “self-cleavage kobs at 2500 uM GlcN6P” value in the data set with glucosamine-6-phosphate [2] was determined as 0.000133 ± 2.4e-05 s⁻¹. Moreover, the “self-cleavage kobs at 10000 uM GlcN6P” value in the data set with glucosamine-6-phosphate [4] turned out to be 0.000181 ± 2.5e-05 s⁻¹.

As to A12C U57A, the “self-cleavage kobs at 640 uM GlcN6P” value with glucosamine-6-phosphate [1] is 5.75e-05 ± 1.5e-05 s⁻¹. Besides, the “self-cleavage kobs at 2500 uM GlcN6P” value in the data set with glucosamine-6-phosphate [2] was determined as 6.14e-05 ± 1.2e-05 s⁻¹. Further, the “self-cleavage kobs at 10000 uM GlcN6P” value with glucosamine-6-phosphate [4] stood at 0.000113 ± 1.9e-05 s⁻¹. Consider A12U A33U, for which the “self-cleavage kobs at 640 uM GlcN6P” value in the data set with glucosamine-6-phosphate [1] came out at 7.77e-05 ± 8.6e-06 s⁻¹. Further, in the data set with glucosamine-6-phosphate [2], the “self-cleavage kobs at 2500 uM GlcN6P” value was determined as 0.00015 ± 1.6e-05 s⁻¹. In addition, the “self-cleavage kobs at 10000 uM GlcN6P” value in the data set with glucosamine-6-phosphate [4] was determined as 0.000348 ± 3.2e-05 s⁻¹. For A12U C50U, the “self-cleavage kobs at 640 uM GlcN6P” value in the data set with glucosamine-6-phosphate [1] was 4.86e-05 ± 1.1e-05 s⁻¹. Further, the “self-cleavage kobs at 2500 uM GlcN6P” value in the data set with glucosamine-6-phosphate [2] is 9.52e-05 ± 1.7e-05 s⁻¹. In addition, the “self-cleavage kobs at 10000 uM GlcN6P” value in the data set with glucosamine-6-phosphate [4] came to 0.00036 ± 4.5e-05 s⁻¹. Regarding C11A G44U G59A C70A, the “self-cleavage kobs at 640 uM GlcN6P” value with glucosamine-6-phosphate [1] was less than 1e-05 s⁻¹. In addition, the “self-cleavage kobs at 160 uM GlcN6P” value with glucosamine-6-phosphate [3] is less than 1e-05 s⁻¹. As for C10G G43U U45C G66C, in the data set with glucosamine-6-phosphate [1], the “self-cleavage kobs at 640 uM GlcN6P” value was less than 1e-05 s⁻¹. Further, in the data set with glucosamine-6-phosphate [2], the “self-cleavage kobs at 2500 uM GlcN6P” value was less than 1e-05 s⁻¹. For C10G A48C G66U, the “self-cleavage kobs at 640 uM GlcN6P” value with glucosamine-6-phosphate [1] was less than 1e-05 s⁻¹. Also, in the data set with glucosamine-6-phosphate [3], the “self-cleavage kobs at 160 uM GlcN6P” value is less than 1e-05 s⁻¹. Besides, the “self-cleavage kobs at 2500 uM GlcN6P” value with glucosamine-6-phosphate [2] was less than 1e-05 s⁻¹. On to C10G C11A C34G, for which, in the data set with glucosamine-6-phosphate [1], the “self-cleavage kobs at 640 uM GlcN6P” value is less than 1e-05 s⁻¹. Also, the “self-cleavage kobs at 2500 uM GlcN6P” value with glucosamine-6-phosphate [2] was less than 1e-05 s⁻¹. On to C11A G32C A33U, for which the “self-cleavage kobs at 640 uM GlcN6P” value with glucosamine-6-phosphate [1] is less than 1e-05 s⁻¹. Take C11A C16A A39U C50A: in the data set with glucosamine-6-phosphate [1], the “self-cleavage kobs at 640 uM GlcN6P” value was less than 1e-05 s⁻¹. The “self-cleavage kobs at 160 uM GlcN6P” value with glucosamine-6-phosphate [3] was less than 1e-05 s⁻¹. With A12C G29A G60A C70A, in the data set with glucosamine-6-phosphate [1], the “self-cleavage kobs at 640 uM GlcN6P” value was less than 1e-05 s⁻¹. Regarding C11G C34A G43U, the “self-cleavage kobs at 640 uM GlcN6P” value with glucosamine-6-phosphate [1] was less than 1e-05 s⁻¹. Further, the “self-cleavage kobs at 2500 uM GlcN6P” value with glucosamine-6-phosphate [2] was less than 1e-05 s⁻¹. For the same variant, the “self-cleavage kobs at 10000 uM GlcN6P” value with glucosamine-6-phosphate [4] is less than 1e-05 s⁻¹. Turning to A12C G32U A33U, the “self-cleavage kobs at 640 uM GlcN6P” value with glucosamine-6-phosphate [1] was less than 1e-05 s⁻¹. Also, the “self-cleavage kobs at 2500 uM GlcN6P” value in the data set with glucosamine-6-phosphate [2] was less than 1e-05 s⁻¹. Turning to A12U U47G A52U C61U, the “self-cleavage kobs at 640 uM GlcN6P” value with glucosamine-6-phosphate [1] was less than 1e-05 s⁻¹. Take C11A A33G G63A G66U: the “self-cleavage kobs at 640 uM GlcN6P” value in the data set with glucosamine-6-phosphate [1] was less than 1e-05 s⁻¹. Regarding C11G A33G A52C, the “self-cleavage kobs at 640 uM GlcN6P” value with glucosamine-6-phosphate [1] was less than 1e-05 s⁻¹. Besides, the “self-cleavage kobs at 160 uM GlcN6P” value in the data set with glucosamine-6-phosphate [3] is less than 1e-05 s⁻¹. Take A12C A15U A33G G35C G44U: the “self-cleavage kobs at 640 uM GlcN6P” value with glucosamine-6-phosphate [1] is less than 1e-05 s⁻¹. Also, the “self-cleavage kobs at 2500 uM GlcN6P” value in the data set with glucosamine-6-phosphate [2] is less than 1e-05 s⁻¹. C10G G29U U31C G32C C34G C71A: the “self-cleavage kobs at 640 uM GlcN6P” value in the data set with glucosamine-6-phosphate [1] is less than 1e-05 s⁻¹.

For the variant C11U U30A G37C G38U G40C G51A, the “self-cleavage kobs at 640 uM GlcN6P” value in the data set with glucosamine-6-phosphate [1] is less than 1e-05 s⁻¹. For the same variant, the “self-cleavage kobs at 2500 uM GlcN6P” value with glucosamine-6-phosphate [2] was less than 1e-05 s⁻¹. With C10G U45A U54G G59C, in the data set with glucosamine-6-phosphate [1], the “self-cleavage kobs at 640 uM GlcN6P” value was less than 1e-05 s⁻¹. Further, the “self-cleavage kobs at 2500 uM GlcN6P” value with glucosamine-6-phosphate [2] was less than 1e-05 s⁻¹.
